The values that follow come from patent US8741807B2 (priority 2011, dated 2014).

Test [1] has as its system OsPR1b, PBZ1 and WRKY45. The test can be described thus: Expression of rice plant disease damage resistance marker genes by real-time PCR after spraying. The settings on record: 1 mM aqueous solution (0.01% Tween 20) sprayed on leaf blades, RNA after 24 hours; tendency. How it is done: (§1) 1 mM Aqueous solutions of the spermidine derivatives were prepared, and added with Tween 20 at a final concentration of 0.01%. Each solution was sprayed on leaf blades of the rice plant cultivated for one week by hydroponics, and after 24 hours, RNAs were extracted. Expression of OsPR1b, PBZ1 and WRKY45, which are rice plant disease damage resistance marker genes, in each sample was measured by using real-time PCR.
1 mM Aqueous solutions of YIS12OH1N (1NHydLau) and YIS12OH4N (HydLau) were prepared, and added with Tween 20 at a final concentration of 0.01%. Each solution was sprayed on leaf blades of the rice plant cultivated for one week by hydroponics, and after 24 hours, RNAs were extracted. Expression of OsPR1b, PBZ1 and WRKY45, which are rice plant disease damage resistance marker genes, in each sample was measured by using real-time PCR.

In test [2] the test system is OsPR1b, PBZ1, WRKY45, and OsNPR1. The test can be described thus: Resistance marker gene expression in the presence of polyamine oxygenase inhibitor guazatine or ABA. On the procedure:
In the graphs, Mock denotes the results obtained with a treatment using a solution not containing a test compound, and ABA denotes results obtained with a treatment using abscisic acid.
as §1
In the same manner as that of Example 6, effect of YIS12OH4N (HydLau) at 3 mM on expression of rice plant disease damage resistance marker genes OsPR1b, PBZ1, WRKY45, and OsNPR1 was examined in the presence of 5 mM guazatine (GAZ), which is a polyamine oxygenase (PA) inhibitor.

For `NCCCCN(CCCN)C(=O)CCCCCCCCCCCO` [YIS12OH4N, ^4N-(12-hydroroxylauroyl)-spermidine], in test [1], the “expression of resistance marker genes OsPR1b, PBZ1 and WRKY45” value is recorded as “induced expression of the resistance marker genes”. For the same compound, in test [2] (YIS12OH4N 3 mM with 5 mM guazatine (GAZ)), the “enhancement of expression of rice plant disease damage resistance marker genes in the presence of guazatine” value was “further promoted”.

With `NCCCCNCCCNC(=O)CCCCCCCCCCCO` [YIS12OH1N, 1-N-(12-hydroroxylauroyl)-spermidine], the “expression of resistance marker genes OsPR1b, PBZ1 and WRKY45” value in test [1] is “induced expression of the resistance marker genes”.

As to `CC1=CC(=O)CC(C)(C)[C@@]1(O)/C=C/C(C)=C\C(=O)O` [ABA, abscisic acid, reference compound], in test [2] (treatment with abscisic acid together with YIS12OH4N (HydLau, 3 mM), FIG. 14), the “effect on disease damage resistance induced by the compound of the present invention” value was “inhibitory effect against disease damage resistance”.
